Data reported in PubChem BioAssay (NCI).
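In this assay, cells in 96-well plates receive the compound at five concentrations for 48 hours. Endpoints are linearly interpolated between the surrounding concentrations. GI50 = concentration required for 50% inhibition of growth.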 A number of entries come with more than one value. They are shown here; other results are not. There may be further records. Results that share an entry are repeats (runs, samples, wells, individuals or studies). Brackets tell where a record comes from. Letters hold for one entry only.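 TGI marks complete inhibition of growth.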

What was measured:
Assay in all cases: DTP human tumour cell line panel, 48 h
UO-31 renal = tested on: UO-31 renal
SNB-75 CNS = tested on: SNB-75 CNS
SW-620 colon = tested on: SW-620 colon
CCRF-CEM leukemia = tested on: CCRF-CEM leukemia
HL-60(TB) leukemia = tested on: HL-60(TB) leukemia

In the case of `CN(C)c1ccc(/C=C/c2sc3ccccc3[n+]2C)cc1`, the TGI (UO-31 renal) is reported as 1.01 µM [sample A, mean of 2 tests] and 17.7 µM [sample B, 1 test], the TGI (SNB-75 CNS) is reported as 951 nM [sample A, 1 test] and 37.5 µM [sample B, 1 test] and the TGI (SW-620 colon) is reported as 7.12 µM [sample A] and > 100 µM [sample B]. The GI50 (CCRF-CEM leukemia) was 215 nM [sample A, 1 test] and 2.54 µM [sample B, 1 test], the TGI (CCRF-CEM leukemia) was 3.35 µM [sample A, 1 test] and > 100 µM [sample B, 1 test] and the TGI (HL-60(TB) leukemia) was 409 nM [sample A] and 8.74 µM [sample B].
